Experiment [1] has as its target GST-GATA3 fusion protein (human) (UniProt P23771). Briefly: pull-down; GST-GATA3 from E. coli lysate on Glutathione-Sepharose beads; lysates of 293FT cells expressing HIF-1α constructs (CoCl2 800 μM, 4 h) incubated at 4 °C for 18 h, five washes with lysis buffer, western blot; only the target purified. (Immunoblotting shows a protein as a band on a membrane.)
Experiment [2] has as its target Hypoxia inducible factor-1 alpha (HIF-1α), endogenous (human (endogenous in OEC-M1 and A375)) (UniProt Q16665). Nature of the experiment: co-IP; lysates in RIPA buffer (500 μg total protein) with 2 μg anti-HIF-1α or anti-GATA3 antibody (IgG control) 18 h at 4 °C, protein G agarose, five washes, immunoblot; cells incubated with MG132 (20 μM) and CoCl2 (800 μM) for 6 h; OEC-M1 with control or GATA3 siRNA, A375 with Mock or GATA3 ….

Chains of the proteins cited; added tags and fusions are not shown. Lines headed by an entry give the natural chain unless they say otherwise; changes in a name come on top. A line that says so, or that is headed by a name, gives the form on record, which may keep a tag or linker. Residues count along the entry.
UniProt P23771: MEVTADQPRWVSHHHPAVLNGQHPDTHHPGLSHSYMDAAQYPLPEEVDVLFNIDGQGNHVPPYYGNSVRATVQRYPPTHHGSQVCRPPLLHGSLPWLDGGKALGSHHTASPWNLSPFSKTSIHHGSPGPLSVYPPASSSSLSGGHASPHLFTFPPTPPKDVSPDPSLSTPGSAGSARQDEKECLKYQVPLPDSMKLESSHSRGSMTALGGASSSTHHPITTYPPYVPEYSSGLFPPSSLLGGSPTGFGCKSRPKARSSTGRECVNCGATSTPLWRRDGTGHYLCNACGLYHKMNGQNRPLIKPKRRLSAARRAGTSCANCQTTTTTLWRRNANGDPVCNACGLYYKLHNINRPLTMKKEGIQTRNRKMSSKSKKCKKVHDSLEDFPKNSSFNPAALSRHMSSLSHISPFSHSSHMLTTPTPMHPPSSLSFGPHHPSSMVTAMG
UniProt Q16665: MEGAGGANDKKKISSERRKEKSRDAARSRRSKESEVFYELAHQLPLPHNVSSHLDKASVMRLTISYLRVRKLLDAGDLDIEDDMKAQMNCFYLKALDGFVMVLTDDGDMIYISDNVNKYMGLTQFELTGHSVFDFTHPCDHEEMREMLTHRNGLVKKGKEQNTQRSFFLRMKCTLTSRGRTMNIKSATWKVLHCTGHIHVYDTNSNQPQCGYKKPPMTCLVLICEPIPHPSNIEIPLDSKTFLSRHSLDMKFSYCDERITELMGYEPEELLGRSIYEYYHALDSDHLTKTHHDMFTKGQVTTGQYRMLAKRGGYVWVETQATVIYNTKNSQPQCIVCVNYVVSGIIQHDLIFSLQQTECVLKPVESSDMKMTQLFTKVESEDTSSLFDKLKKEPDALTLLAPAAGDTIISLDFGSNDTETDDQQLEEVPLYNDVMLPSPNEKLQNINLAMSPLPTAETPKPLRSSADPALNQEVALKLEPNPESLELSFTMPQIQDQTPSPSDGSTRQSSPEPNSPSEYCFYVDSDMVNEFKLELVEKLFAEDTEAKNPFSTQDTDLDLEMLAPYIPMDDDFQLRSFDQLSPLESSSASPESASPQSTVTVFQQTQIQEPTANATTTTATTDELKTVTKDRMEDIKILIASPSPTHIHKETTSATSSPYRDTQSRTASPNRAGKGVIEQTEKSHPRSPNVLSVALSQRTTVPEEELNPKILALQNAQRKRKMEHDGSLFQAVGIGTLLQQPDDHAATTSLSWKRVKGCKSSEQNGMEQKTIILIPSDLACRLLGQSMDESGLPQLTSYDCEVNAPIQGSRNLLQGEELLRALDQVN
N-terminal part of HIF-1α (aa 1-401), Flag-tagged (N-HIF-1α/pCMV-Tag 4A): residues 1-401 of Q16665
C-terminal part of HIF-1α (aa 402-826), Flag-tagged (C-HIF-1α/pCMV-Tag 4A): residues 402-826 of Q16665

Results are given in words; binding and its absence hold for the method and conditions named. In cells and extracts the contact can be indirect. Some entries that bind do so weakly or less than the wild type.

“C-terminal part of HIF-1α (aa 402-826), Flag-tagged (C-HIF-1α/pCMV-Tag 4A) (from UniProt Q16665-1 402-826) (domain or fragment)”: the binding entry in experiment [1] is on record as “no binding”.
Still for that read-out and setting: the entry for “Full-length HIF-1α, Flag-tagged (F-HIF-1α/pCMV-Tag 4A) (from UniProt Q16665-1 1-826)” is “binds”.
“GATA3 expressed from GATA3/pcDNA3.1 in A375 cells (from UniProt P23771-1 1-443)”: in experiment [2], the binding result is recorded as “binds”.
Take “GATA binding protein 3 (GATA3), endogenous in OEC-M1 cells (from UniProt P23771 1-443)”: in experiment [2], the binding entry was “binds”.
With “N-terminal part of HIF-1α (aa 1-401), Flag-tagged (N-HIF-1α/pCMV-Tag 4A) (from UniProt Q16665-1 1-401) (domain or fragment)”, the binding result in experiment [1] was “binds”.

Values taken from article PMC5537608.
